Assay results from paper PMC2223503.

Assays:
CCK-B receptors = assay: competitive inhibition of [125I]BH-CCK-8 binding in tumour-free human pancreas (CCK receptor subtype); settings: for potency in competitive inhibition of [125I]BH-CCK-8 binding: CCK-8, gastrin, L365,260 and CR 2093 compared, three experiments in duplicate (Figure 2)
[1] = system: patients with advanced pancreatic cancer; settings: ref Abbruzzese et al, 1992; cited from earlier work
[2] = system: CCK-A and CCK-B receptors; settings: ref Wank et al, 1994 (preceding sentence); cited from earlier work
BBS receptors = assay: storage phosphor autoradiography, binding of [125I]Tyr4-BBS to human pancreatic tissue sections; settings: pancreatic cancer, receptor-negative cases, 10 of 12
[3] = system: pancreatic cancer in animal models; settings: ref Townsend et al, 1981, Poston et al, 1988, Edwards et al, 1989, Meijers et al, 1991, 1992; cited from earlier work
[4] = system: patients with pancreatic cancer; settings: radioiodinated VIP, ref Virgolini et al, 1994; cited from earlier work
[5] = system: pancreatic cancer cell proliferation; settings: ref Liehr et al, 1990; cited from earlier work
Secretin receptors = settings: ref Laburthe et al, 1994; cited from earlier work
VIP receptors [6] = assay: storage phosphor autoradiography, binding of [125I]VIP-28 to human pancreatic tissue sections
Excerpt: Abscissa, concentrations of various agents indicated above.

healthy human subjects = settings: ref Domschke et al, 1977, Fahrenkrug et al, 1987; cited from earlier work
PANC- 1 = settings: ref Poston et al, 1988, Liehr et al, 1990; cited from earlier work
MIA PaCa-2 = settings: ref Poston et al, 1988, Liehr et al, 1990; cited from earlier work
VIP receptors [7] = system: VIP receptors; parameters: method as in Laburthe et al, 1994; settings: ref Laburthe et al, 1994; cited from earlier work
[8] = system: receptors for cholecystokinin (CCK); assay: storage phosphor autoradiography, binding of [125I]BH-CCK-8 to human pancreatic tissue sections; settings: pancreatic cancer, n = 12
[9] = system: pancreatic neoplasms of azaserine-treated rats; settings: ref Douglas et al, 1989, Bell et al, 1992, Tang et al, 1995a; cited from earlier work
BOP-hamster model = settings: ref Johnson et al, 1983, Howatson et al, 1985, Meijers et al, 1990; cited from earlier work
[10] = system: human pancreatic cancer cell lines or human pancreatic cancer xenografts in nude mice; settings: ref Upp et al, 1987, Smith et al, 1990, Nio et al, 1993; cited from earlier work
[11] = system: membranes of other pancreatic cancer cell lines; settings: ref Singh et al, 1991; cited from earlier work
intact cells = settings: ref Herrington and Adrian, 1995; cited from earlier work
rat acinar cell tumours = settings: no reference given; cited from earlier work

- potency in competitive inhibition of [125I]BH-CCK-8 binding (CCK-B receptors): similarly potent
Molecule: CC(C)(C)CCNC(=O)[C@@H](CCC(=O)O)NC(=O)c1cccc(Cl)c1 [CR 2093]

Molecule: Cc1cccc(NC(=O)N[C@@H]2N=C(c3ccccc3)c3ccccc3N(C)C2=O)c1 [L365,260]
- potency in competitive inhibition of [125I]BH-CCK-8 binding (CCK-B receptors): similarly potent

Molecule: CN1C(=O)[C@@H](NC(=O)c2cc3ccccc3[nH]2)N=C(c2ccccc2)c2ccccc21 [MK-329]
- impact on tumour progression, pain or nutrition [1]: failed to demonstrate any impact

Molecule: CN1C(=O)[C@@H](NC(=O)c2cc3ccccc3[nH]2)N=C(c2ccccc2)c2ccccc21 [devazepide]
- affinity relative to the CCK-B antagonists L365,260 and CR 2093 (CCK-B receptors; Figure 2B): about 45 -fold lower
- replacement of [125I]BH-CCK-8 binding (CCK-B receptors; at a concentration of 1 µM): able to replace the binding

- potency in competitive inhibition of [125I]BH-CCK-8 binding (CCK-B receptors): similarly potent
Molecule: CCK-8: CCK receptor agonist; non-selective ligand for both CCK-A and CCK-B receptors
- receptor subtype selectivity [2]: non- selective ligand for both CCK-A and CCK-B receptors

- Peptide bound (BBS receptors): 0 fmol mg-1 protein
Molecule: bombesin [BBS]
- effect on growth of pancreatic cancer [3]: inconsistent and unclear

Molecule: gastrin
- potency in competitive inhibition of [125I]BH-CCK-8 binding (CCK-B receptors): similarly potent

Molecule: radioiodinated VIP: radioiodinated VIP for in vivo scanning (Virgolini et al, 1994) (HSDAVFTDNYTRLRKQMAVKKYLNSILN; ends and bridges not checked; also: 125I-labelled, position not given here; UniProt P01282 125-152, looked up)
- tumour visualization [4]: visualized tumour masses

Molecule: secretin
- effect on growth of pancreatic cancer [3]: inconsistent and unclear
- effect on cell proliferation [5]: no effect
- affinity in words (Secretin receptors): high affinity

- Peptide bound (VIP receptors [6]; normal pancreas, n = 10, [125I]VIP-28 100 pM, 22 °C, 180 min): 0 fmol mg-1 protein
- Peptide bound (VIP receptors [6]; pancreatic cancer, receptor-negative cases, 9 of 12): 0 fmol mg-1 protein
Molecule: vasoactive intestinal peptide [VIP]
- effect on growth of pancreatic cancer [3]: inconsistent and unclear
- effect on pancreatic secretion (healthy human subjects): stimulates secretion of insulin, glucagon and bicarbonate output
- specific binding and effect (PANC- 1): neither specific binding nor effect of VIP were detected
- specific binding and effect (MIA PaCa-2): neither specific binding nor effect of VIP were detected
- affinity in words (Secretin receptors): relatively low affinity
- affinity relative to secretin (VIP receptors [7]): much higher than that of secretin

- Peptide bound [8]: 0 fmol mg-1 protein
B1: cholecystokinin (peptide, UniProt P06307 21-115, looked up)
Cholecystokinin: QPVPPADPAGSGLQRAEEAPRRQLRVSQRTDGESRAHLGALLARYIQQARKAPSGRMSIVKNLQNLDPSHRISDRDYMGWMDFGRRSAEEYEYPS
modifications: Cholecystokinin
notes: gut hormone
- effect on growth of pancreatic neoplasms [9]: Promotive effects
- effect on pancreatic carcinogenesis (BOP-hamster model): rather inconsistent
- effect on growth of human pancreatic cancer [10]: stimulative, inhibitory or no effect
- specific binding [11]: no specific CCK binding was detected
- specific binding (intact cells): could not be demonstrated
- effect on proliferation of rat acinar cell tumours (rat acinar cell tumours): stimulates proliferation of rat acinar cell tumours

One block for each molecule: values may come before it. Ends that are not written are not given here.
